Target: human CB2 receptor (hCB2) (Homo sapiens, UniProt P34972)
Assay: cell-based
Assay type: cell-based
Settings: for +/− HCB2: agonist or inverse agonist at hCB2

human CB2 receptor (hCB2), sequence (P34972 whole entry): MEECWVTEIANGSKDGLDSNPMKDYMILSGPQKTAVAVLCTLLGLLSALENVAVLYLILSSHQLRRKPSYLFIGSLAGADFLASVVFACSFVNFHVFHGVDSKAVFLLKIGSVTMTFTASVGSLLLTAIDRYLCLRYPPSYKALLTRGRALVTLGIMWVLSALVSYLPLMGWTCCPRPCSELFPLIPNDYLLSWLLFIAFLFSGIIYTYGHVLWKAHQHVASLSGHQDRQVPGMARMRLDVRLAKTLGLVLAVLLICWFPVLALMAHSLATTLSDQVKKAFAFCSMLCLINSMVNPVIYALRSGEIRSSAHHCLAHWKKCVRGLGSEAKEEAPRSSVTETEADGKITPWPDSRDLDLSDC

SMILES	+/− HCB2	EC50 [µM]
CC(=O)N1CCn2c(-c3ccccc3)nc(C(=O)Nc3ccccc3)c2C1 [Compound 173, 7-acetyl-N,3-diphenyl-5,6,7,8-tetrahydroimidazo[1,5-a]pyrazine-1-carboxamide]	+	
CNC(=O)[C@@H](NC(=O)c1nc(-c2cccc3cccnc23)n2c1CN(C)CC2)C(C)(C)C [Compound 242, (S)-N-(3,3-dimethyl-1-(methylamino)-1-oxobutan-2-yl)-7-methyl-3-(quinolin-8-yl)-5,6,7,8-tetrahydroimidazo[1,5-a]pyrazine-1-carboxamide]		> 10
COC(=O)[C@@H](NC(=O)c1nc(-c2ccc(C)cc2F)n2c1CN(C)CCC2)C(C)(C)C [Compound 469, (S)-methyl 2-(3-(2-fluoro-4-methylphenyl)-8-methyl-6,7,8,9-tetrahydro-5H-imidazo[1,5-a][1,4]diazepine-1-carboxamido)-3,3-dimethylbutanoate]	+	
CN1CCCn2c(-c3ccccc3)nc(C(=O)N[C@H](C(=O)N(C)C)C(C)(C)C)c2C1 [Compound 557, (S)-N-(1-(dimethylamino)-3,3-dimethyl-1-oxobutan-2-yl)-8-methyl-3-phenyl-6,7,8,9-tetrahydro-5H-imidazo[1,5-a][1,4]diazepine-1-carboxamide]	+	
CNC(=O)[C@@H](NC(=O)c1nc(-c2cccc(C#N)c2)n2c1CN(C)CC2)C(C)(C)C [Compound 260, (S)-3-(3-cyanophenyl)-N-(3,3-dimethyl-1-(methylamino)-1-oxobutan-2-yl)-7-methyl-5,6,7,8-tetrahydroimidazo[1,5-a]pyrazine-1-carboxamide]	+	
CNC(=O)[C@@H](NC(=O)c1nc(/C=C/C(C)(C)C)n2c1CN(C)CC2)C(C)(C)C [Compound 263, (S,E)-N-(3,3-dimethyl-1-(methylamino)-1-oxobutan-2-yl)-3-(3,3-dimethylbut-1-enyl)-7-methyl-5,6,7,8-tetrahydroimidazo[1,5-a]pyrazine-1-carboxamide]	+	
CNC(=O)[C@@H](NC(=O)c1nc(-c2ccncc2)n2c1CN(C)CCC2)C(C)(C)C [Compound 402, (S)-N-(3,3-dimethyl-1-(methylamino)-1-oxobutan-2-yl)-8-methyl-3-(pyridin-4-yl)-6,7,8,9-tetrahydro-5H-imidazo[1,5-a][1,4]diazepine-1-carboxamide]	+	
CCN1CCn2c(-c3ccc(Cl)cc3)nc(C(=O)NCCC(C)C)c2C1 [Compound 158, 3-(4-chlorophenyl)-7-ethyl-N-isopentyl-5,6,7,8-tetrahydroimidazo[1,5-a]pyrazine-1-carboxamide]		> 10
CNC(=O)[C@@H](NC(=O)c1nc(-c2ccccc2)n2c1CN(C1CC1)CC2)C(C)(C)C [Compound 197, (S)-7-cyclopropyl-N-(3,3-dimethyl-1-(methylamino)-1-oxobutan-2-yl)-3-phenyl-5,6,7,8-tetrahydroimidazo[1,5-a]pyrazine-1-carboxamide]	+	
CNC(=O)[C@@H](NC(=O)c1nc(-c2ccccc2-c2ccccc2)n2c1CN(C)CCC2)C(C)(C)C [Compound 413, (S)-3-(biphenyl-2-yl)-N-(3,3-dimethyl-1-(methylamino)-1-oxobutan-2-yl)-8-methyl-6,7,8,9-tetrahydro-5H-imidazo[1,5-a][1,4]diazepine-1-carboxamide]		> 10
CNC(=O)[C@@H](NC(=O)c1nc(CC(C)C)n2c1CN(C)CC2)C(C)(C)C [Compound 306, (S)-N-(3,3-dimethyl-1-(methylamino)-1-oxobutan-2-yl)-3-isobutyl-7-methyl-5,6,7,8-tetrahydroimidazo[1,5-a]pyrazine-1-carboxamide]	+	
COC(=O)[C@@H](NC(=O)c1nc(-c2ccccc2)n2c1CN(C)CCC2)C(C)(C)C [Compound 467, (S)-methyl 3,3-dimethyl-2-(8-methyl-3-phenyl-6,7,8,9-tetrahydro-5H-imidazo[1,5-a][1,4]diazepine-1-carboxamido)butanoate]	+	
CC(C)(C)OC(=O)N1CCn2c(-c3ccccc3)nc(C(=O)NN3CCCCC3)c2C1 [Compound 35, tert-butyl 3-phenyl-1-(piperidin-1-ylcarbamoyl)-5,6-dihydroimidazo[1,5-a]pyrazine-7(8H)-carboxylate]	−	
CC12CCC(C1)C(C)(C)C2NC(=O)c1nc(-c2ccccc2)n2c1CN(C(=O)C1CC1)CC2 (centres unmarked) [Compound 119, 7-(cyclopropanecarbonyl)-3-phenyl-N-(1,3,3-trimethyl-bicyclo [2.2.1]heptan-2-yl)-5,6,7,8-tetrahydroimidazo[1,5-a]pyrazine-1-carboxamide]	+	
CCN1CCn2c(-c3ccccc3)nc(C(=O)N[C@H](C(=O)NC)C(C)(C)C)c2C1 [Compound 149, (S)-N-(3,3-dimethyl-1-(methyalmino)-1-oxobutan-2-yl)-7-ethyl-3-phenyl-5,6,7,8-tetrahydroimidazo[1,5-a]pyrazine-1-carboxamide]	+	
CNC(=O)[C@@H](NC(=O)c1nc(-c2cc(C(F)(F)F)cc(C(F)(F)F)c2)n2c1CN(C)CCC2)C(C)(C)C [Compound 599, (S)-3-(3,5-bis(trifluoromethyl)phenyl)-N-(3,3-dimethyl-1-(methylamino)-1-oxobutan-2-yl)-8-methyl-6,7,8,9-tetrahydro-5H-imidazo[1,5-a][1,4]diazepine-1-carboxamide]		> 10
Cc1noc([C@@H](NC(=O)c2nc(-c3ccccc3)n3c2CN(C2CC2)CC3)C(C)(C)C)n1 [Compound 198, (S)-7-cyclopropyl-N-(2,2-dimethyl-1-(3-methyl-1,2,4-oxadiazol-5-yl)propyl)-3-phenyl--5,6,7,8-tetrahydroimidazo[1,5-a]pyrazine-1-carboxamide]	+	
Cc1noc([C@@H](NC(=O)c2nc(-c3ccccc3)n3c2CNCCC3)C(C)(C)C)n1 [Compound 519, (S)-N-(2,2-dimethyl-1-(3-methyl-1,2,4-oxadiazol-5-yl)propyl)-3-phenyl-6,7,8,9-tetrahydro-5H-imidazo[1,5-a][1,4]diazepine-1-carboxamide]	+	
C=C(C)c1nc(C(=O)N[C@H](C(=O)NC)C(C)(C)C)c2n1CCCN(C)C2 [Compound 441, (S)-N-(3,3-dimethyl-1-(methylamino)-1-oxobutan-2-yl)-8-methyl-3-(prop-1-en-2-yl)-6,7,8,9-tetrahydro-5H-imidazo[1,5-a][1,4]diazepine-1-carboxamide]	+	
CNC(=O)[C@@H](NC(=O)c1nc(/C=C/CN2CCCCC2)n2c1CN(C)CCC2)C(C)(C)C [Compound 510, (S,E)-N-(3,3-dimethyl-1-(methylamino)-1-oxobutan-2-yl)-8-methyl-3-(3-(piperidin-1-yl)prop-1-enyl)-6,7,8,9-tetrahydro-5H-imidazo[1,5-a][1,4]diazepine-1-carboxamide]	+	
CCCNC(=O)[C@@H](NC(=O)c1nc(-c2ccccc2)n2c1CN(C)CCC2)C(C)(C)C [Compound 473, (S)-N-(3,3-dimethyl-1-oxo-1-(propylamino)butan-2-yl)-8-methyl-3-phenyl-6,7,8,9-tetrahydro-5H-imidazo[1,5-a][1,4]diazepine-1-carboxamide]	+	
CC(=O)N1CCn2c(-c3ccccc3)nc(C(=O)NN3CCCCC3)c2C1 [Compound 175, 7-acetyl-3-phenyl-N-(piperidin-1-yl)-5,6,7,8-tetrahydroimidazo[1,5-a]pyrazine-1-carboxamide]	+	
CNC(=O)[C@@H](NC(=O)c1nc(-c2ccc(S(=O)(=O)N(C)C)cc2)n2c1CN(C)CCC2)C(C)(C)C [Compound 410, (S)-N-(3,3-dimethyl-1-(methylamino)-1-oxobutan-2-yl)-3-(4-(N,N-dimethylsulfamoyl)phenyl)-8-methyl-6,7,8,9-tetrahydro-5H-imidazo[1,5-a][1,4]diazepine-1-carboxamide]		> 10
CNC(=O)[C@@H](NC(=O)c1nc(-c2ccccc2)n2c1CN(S(=O)(=O)c1ccc(F)cc1)CC2)C(C)(C)C [Compound 93, (S)-N-(3,3-dimethyl-1-(methylamino)-1-oxobutan-2-yl)-7-(4-fluorophenylsulfonyl)-3-phenyl-5,6,7,8-tetrahydroimidazo[1,5-a]pyrazine-1-carboxamide]	−	
CN1CCCn2c(-c3cc(F)ccc3F)nc(C(=O)N[C@@H](CC(C)(C)C)C(N)=O)c2C1 [Compound 583, (S)-N-(1-amino-4,4-dimethyl-1-oxopentan-2-yl)-3-(2,5-difluorophenyl)-8-methyl-6,7,8,9-tetrahydro-5H-imidazo[1,5-a][1,4]diazepine-1-carboxamide]	+	
CNC(=O)[C@H](CC(C)(C)C)NC(=O)c1nc(-c2ccc(Cl)cc2F)n2c1CN(C)CCC2 [Compound 544, (S)-3-(4-chloro-2-fluorophenyl)-N-(4,4-dimethyl-1-(methylamino)-1-oxopentan-2-yl)-8-methyl-6,7,8,9-tetrahydro-5H-imidazo[1,5-a][1,4]diazepine-1-carboxamide]	+	
CC(C)(C)[C@@H](CO)NC(=O)c1nc(-c2ccccc2)n2c1CN(S(=O)(=O)c1ccccc1)CC2 [Compound 102, (S)-N-(1-hydroxy-3,3-dimethylbutan-2-yl)-3-phenyl-7-(phenylsulfonyl)-5,6,7,8-tetrahydroimidazo[1,5-a]pyrazine-1-carboxamide]		> 10
CNC(=O)[C@@H](NC(=O)c1nc(-c2ccc(C)cc2F)n2c1CN(C)CC2)C(C)(C)C [Compound 249, (S)-N-(3,3-dimethyl-1-(methylamino)-1-oxobutan-2-yl)-3-(2-fluoro-4-methylphenyl)-7-methyl-5,6,7,8-tetrahydroimidazo[1,5-a]pyrazine-1-carboxamide]	+	
CNC(=O)[C@@H](NC(=O)c1nc(-c2ccccc2)n2c1CN(c1cccc(Cl)n1)CC2)C(C)(C)C [Compound 299, (S)-7-(6-chloropyridin-2-yl)-N-(3,3-dimethyl-1-(methylamino)-1-oxobutan-2-yl)-3-phenyl-5,6,7,8-tetrahydroimidazo[1,5-a]pyrazine-1-carboxamide]	−	

Source: patent US7517874B2 (priority 2007, dated 2009)
